These are yes or no findings as the source states them, for the method shown. Some results given as binding are weak or reduced against the parent protein; the word gives no strength.
B1: Nup160 (protein, UniProt Q12769 1-1436)
chain: MLHLSAAPPAPPPEVTATARPCLCSVGRRGDGGKMAAAGALERSFVELSGAERERPRHFREFTVCSIGTANAVAGAVKYSESAGGFYYVESGKLFSVTRNRFIHWKTSGDTLELMEESLDINLLNNAIRLKFQNCSVLPGGVYVSETQNRVIILMLTNQTVHRLLLPHPSRMYRSELVVDSQMQSIFTDIGKVDFTDPCNYQLIPAVPGISPNSTASTAWLSSDGEALFALPCASGGIFVLKLPPYDIPGMVSVVELKQSSVMQRLLTGWMPTAIRGDQSPSDRPLSLAVHCVEHDAFIFALCQDHKLRMWSYKEQMCLMVADMLEYVPVKKDLRLTAGTGHKLRLAYSPTMGLYLGIYMHAPKRGQFCIFQLVSTESNRYSLDHISSLFTSQETLIDFALTSTDIWALWHDAENQTVVKYINFEHNVAGQWNPVFMQPLPEEEIVIRDDQDPREMYLQSLFTPGQFTNEALCKALQIFCRGTERNLDLSWSELKKEVTLAVENELQGSVTEYEFSQEEFRNLQQEFWCKFYACCLQYQEALSHPLALHLNPHTNMVCLLKKGYLSFLIPSSLVDHLYLLPYENLLTEDETTISDDVDIARDVICLIKCLRLIEESVTVDMSVIMEMSCYNLQSPEKAAEQILEDMITIDVENVMEDICSKLQEIRNPIHAIGLLIREMDYETEVEMEKGFNPAQPLNIRMNLTQLYGSNTAGYIVCRGVHKIASTRFLICRDLLILQQLLMRLGDAVIWGTGQLFQAQQDLLHRTAPLLLSYYLIKWGSECLATDVPLDTLESNLQHLSVLELTDSGALMANRFVSSPQTIVELFFQEVARKHIISHLFSQPKAPLSQTGLNWPEMITAITSYLLQLLWPSNPGCLFLECLMGNCQYVQLQDYIQLLHPWCQVNVGSCRFMLGRCYLVTGEGQKALECFCQAASEVGKEEFLDRLIRSEDGEIVSTPRLQYYDKVLRLLDVIGLPELVIQLATSAITEAGDDWKSQATLRTCIFKHHLDLGHNSQAYEALTQIPDSSRQLDCLRQLVVVLCERSQLQDLVEFPYVNLHNEVVGIIESRARAVDLMTHNYYELLYAFHIYRHNYRKAGTVMFEYGMRLGREVRTLRGLEKQGNCYLAALNCLRLIRPEYAWIVQPVSGAVYDRPGASPKRNHDGECTAAPTNRQIEILELEDLEKECSLARIRLTLAQHDPSAVAVAGSSSAEEMVTLLVQAGLFDTAISLCQTFKLPLTPVFEGLAFKCIKLQFGGEAAQAEAWAWLAANQLSSVITTKESSATDEAWRLLSTYLERYKVQNNLYHHCVINKLLSHGVPLPNWLINSYKKVDAAELLRLYLNYDLLEEAVDLVSEYVDAVLGKGHQYFGIEFPLSATAPMVWLPYSSIDQLLQALGENSANSHNIALSQKILDKLEDYQQKVDKATRDLLYRRTL
B2: Nup85 (protein, UniProt Q8R480 1-656)
chain: MEELDCEPAVTWIPGVNSKKKQMCFDWGPGEMLLCETSFNQTGKSEKVPSCPFIYIIRKDVDVYSQILRKLFNESHGIFVGLQKIEEELSGKSRKAQLVRVSKNYRSVIRACMEEMHQVAIAAKDPASGRQFSSQVSILSAMELIWNLCEILFIEVAPAGPLLLHLLDWVRLHVCEVDSLSADVLGGDNPSKHENFWDLVTVLVLQGRLDEARQMLAKEADANPSCAGMCRVLGDLMRTMPILSPGNTQTLTELELKWQHWREECERHLQDNTFAANPRLESLCKIMLGDEAALLEQKELLSNWYHFLVTRLLYSNPTVKPIDLHFYAQSSLDMFLGGESSPEPLDNILMAAFEFDIHQVIKECSIALSNWWFVAHLTDLLDHCRLLQSHNLYFGSNMREFLLLEYASGLFAHHSLWQLGVDYFDYCPELGRVSLELHIERIPLNTEQKALKVLRICEQRQMTEQVKSICKILAMKAVRNNRLGSALSWSIRAKDAAFATLVSDRFLRDYCERGCFSDLDLIDNLGSAMMLSDRLTFLGKYREFHRLYGEKRFGDAASLLLSLMTSQIAPRSFWMTLLTDALPLLEQKQVIFSAEQTYELMRCLEDLASGRPECGEPDAQRLQDDDIETTKVEMLRLALARNLARAIIREGSLEGS
B3: NPHP2 (inversin) (protein, UniProt Q9Y283 1-1065)
chain: MNKSENLLFAGSSLASQVHAAAVNGDKGALQRLIVGNSALKDKEDQFGRTPLMYCVLADRLDCADALLKAGADVNKTDHSQRTALHLAAQKGNYRFMKLLLTRRANWMQKDLEEMTPLHLTTRHRSPKCLALLLKFMAPGEVDTQDKNKQTALHWSAYYNNPEHVKLLIKHDSNIGIPDVEGKIPLHWAANHKDPSAVHTVRCILDAAPTESLLNWQDYEGRTPLHFAVADGNVTVVDVLTSYESCNITSYDNLFRTPLHWAALLGHAQIVHLLLERNKSGTIPSDSQGATPLHYAAQSNFAETVKVFLKHPSVKDDSDLEGRTSFMWAAGKGSDDVLRTMLSLKSDIDINMADKYGGTALHAAALSGHVSTVKLLLENNAQVDATDVMKHTPLFRACEMGHKDVIQTLIKGGARVDLVDQDGHSLLHWAALGGNADVCQILIENKINPNVQDYAGRTPLQCAAYGGYINCMAVLMENNADPNIQDKEGRTALHWSCNNGYLDAIKLLLDFAAFPNQMENNEERYTPLDYALLGERHEVIQFMLEHGALSIAAIQDIAAFKIQAVYKGYKVRKAFRDRKNLLMKHEQLRKDAAAKKREEENKRKEAEQQKGRRSPDSCRPQALPCLPSTQDVPSRQSRAPSKQPPAGNVAQGPEPRDSRGSPGGSLGGALQKEQHVSSDLQGTNSRRPNETAREHSKGQSACVHFRPNEGSDGSRHPGVPSVEKSRGETAGDERCAKGKGFVKQPSCIRVAGPDEKGEDSRRAAASLPPHDSHWKPSRRHDTEPKAKCAPQKRRTQELRGGRCSPAGSSRPGSARGEAVHAGQNPPHHRTPRNKVTQAKLTGGLYSHLPQSTEELRSGARRLETSTLSEDFQVSKETDPAPGPLSGQSVNIDLLPVELRLQIIQRERRRKELFRKKNKAAAVIQRAWRSYQLRKHLSHLRHMKQLGAGDVDRWRQESTALLLQVWRKELELKFPQTTAVSKAPKSPSKGTSGTKSTKHSVLKQIYGCSHEGKIHHPTRSVKASSVLRLNSVSNLQCIHLLENSGRSKNFSYNLQSATQPKNKTKP
B4: Nup155 (protein, UniProt O75694 1-1391)
chain: MPSSLLGAAMPASTSAAALQEALENAGRLIDRQLQEDRMYPDLSELLMVSAPNNPTVSGMSDMDYPLQGPGLLSVPNLPEISSIRRVPLPPELVEQFGHMQCNCMMGVFPPISRAWLTIDSDIFMWNYEDGGDLAYFDGLSETILAVGLVKPKAGIFQPHVRHLLVLATPVDIVILGLSYANLQTGSGVLNDSLSGGMQLLPDPLYSLPTDNTYLLTITSTDNGRIFLAGKDGCLYEVAYQAEAGWFSQRCRKINHSKSSLSFLVPSLLQFTFSEDDPILQIAIDNSRNILYTRSEKGVIQVYDLGQDGQGMSRVASVSQNAIVSAAGNIARTIDRSVFKPIVQIAVIENSESLDCQLLAVTHAGVRLYFSTCPFRQPLARPNTLTLVHVRLPPGFSASSTVEKPSKVHRALYSKGILLMAASENEDNDILWCVNHDTFPFQKPMMETQMTAGVDGHSWALSAIDELKVDKIITPLNKDHIPITDSPVVVQQHMLPPKKFVLLSAQGSLMFHKLRPVDQLRHLLVSNVGGDGEEIERFFKLHQEDQACATCLILACSTAACDREVSAWATRAFFRYGGEAQMRFPTTLPPPSNVGPILGSPVYSSSPVPSGSPYPNPSFLGTPSHGIQPPAMSTPVCALGNPATQATNMSCVTGPEIVYSGKHNGICIYFSRIMGNIWDASLVVERIFKSGNREITAIESSVPCQLLESVLQELKGLQEFLDRNSQFAGGPLGNPNTTAKVQQRLIGFMRPENGNPQQMQQELQRKFHEAQLSEKISLQAIQQLVRKSYQALALWKLLCEHQFTIIVAELQKELQEQLKITTFKDLVIRDKELTGALIASLINCYIRDNAAVDGISLHLQDICPLLYSTDDAICSKANELLQRSRQVQNKTEKERMLRESLKEYQKISNQVDLSNVCAQYRQVRFYEGVVELSLTAAEKKDPQGLGLHFYKHGEPEEDIVGLQAFQERLNSYKCITDTLQELVNQSKAAPQSPSVPKKPGPPVLSSDPNMLSNEEAGHHFEQMLKLSQRSKDELFSIALYNWLIQVDLADKLLQVASPFLEPHLVRMAKVDQNRVRYMDLLWRYYEKNRSFSNAARVLSRLADMHSTEISLQQRLEYIARAILSAKSSTAISSIAADGEFLHELEEKMEVARIQLQIQETLQRQYSHHSSVQDAVSQLDSELMDITKLYGEFADPFKLAECKLAIIHCAGYSDPILVQTLWQDIIEKELSDSVTLSSSDRMHALSLKIVLLGKIYAGTPRFFPLDFIVQFLEQQVCTLNWDVGFVIQTMNEIGVPLPRLLEVYDQLFKSRDPFWNRMKKPLHLLDCIHVLLIRYVENPSQVLNCERRRFTNLCLDAVCGYLVELQSMSSSVAVQAITGNFKSLQAKLERLH

Amino acid sequences for entries named in this document (tags omitted).
UniProt Q7Z494: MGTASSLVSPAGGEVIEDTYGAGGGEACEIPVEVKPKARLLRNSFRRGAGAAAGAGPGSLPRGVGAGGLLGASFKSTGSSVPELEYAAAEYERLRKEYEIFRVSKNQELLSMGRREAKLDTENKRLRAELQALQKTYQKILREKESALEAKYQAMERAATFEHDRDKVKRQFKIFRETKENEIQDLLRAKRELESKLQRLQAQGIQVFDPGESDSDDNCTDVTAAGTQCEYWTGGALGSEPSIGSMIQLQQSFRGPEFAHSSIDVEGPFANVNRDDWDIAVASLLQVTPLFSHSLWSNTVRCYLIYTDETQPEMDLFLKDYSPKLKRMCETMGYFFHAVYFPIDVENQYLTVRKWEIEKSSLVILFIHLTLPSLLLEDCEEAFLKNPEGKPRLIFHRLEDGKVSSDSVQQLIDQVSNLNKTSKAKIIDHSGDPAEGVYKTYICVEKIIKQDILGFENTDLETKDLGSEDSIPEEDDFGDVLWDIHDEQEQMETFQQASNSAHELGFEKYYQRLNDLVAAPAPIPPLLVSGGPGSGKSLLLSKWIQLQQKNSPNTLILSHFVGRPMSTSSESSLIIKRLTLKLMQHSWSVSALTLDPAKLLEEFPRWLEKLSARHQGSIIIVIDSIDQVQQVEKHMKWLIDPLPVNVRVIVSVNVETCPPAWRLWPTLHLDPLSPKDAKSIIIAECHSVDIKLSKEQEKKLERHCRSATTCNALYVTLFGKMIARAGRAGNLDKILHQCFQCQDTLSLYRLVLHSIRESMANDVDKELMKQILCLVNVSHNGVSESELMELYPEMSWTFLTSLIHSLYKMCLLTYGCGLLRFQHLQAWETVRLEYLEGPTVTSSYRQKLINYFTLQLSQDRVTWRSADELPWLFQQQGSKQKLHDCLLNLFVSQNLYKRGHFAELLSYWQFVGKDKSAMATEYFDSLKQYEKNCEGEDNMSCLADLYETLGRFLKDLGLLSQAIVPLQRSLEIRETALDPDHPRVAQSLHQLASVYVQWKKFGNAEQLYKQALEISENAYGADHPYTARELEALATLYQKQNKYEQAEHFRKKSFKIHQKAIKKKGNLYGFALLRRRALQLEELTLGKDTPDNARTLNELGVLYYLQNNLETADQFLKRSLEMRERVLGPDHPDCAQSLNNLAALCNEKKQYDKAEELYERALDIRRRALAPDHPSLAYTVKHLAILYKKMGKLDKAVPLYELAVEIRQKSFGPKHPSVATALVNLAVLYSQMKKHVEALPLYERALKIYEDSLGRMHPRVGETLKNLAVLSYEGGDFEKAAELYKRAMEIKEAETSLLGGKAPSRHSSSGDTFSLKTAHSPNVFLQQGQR
UniProt Q68CZ1: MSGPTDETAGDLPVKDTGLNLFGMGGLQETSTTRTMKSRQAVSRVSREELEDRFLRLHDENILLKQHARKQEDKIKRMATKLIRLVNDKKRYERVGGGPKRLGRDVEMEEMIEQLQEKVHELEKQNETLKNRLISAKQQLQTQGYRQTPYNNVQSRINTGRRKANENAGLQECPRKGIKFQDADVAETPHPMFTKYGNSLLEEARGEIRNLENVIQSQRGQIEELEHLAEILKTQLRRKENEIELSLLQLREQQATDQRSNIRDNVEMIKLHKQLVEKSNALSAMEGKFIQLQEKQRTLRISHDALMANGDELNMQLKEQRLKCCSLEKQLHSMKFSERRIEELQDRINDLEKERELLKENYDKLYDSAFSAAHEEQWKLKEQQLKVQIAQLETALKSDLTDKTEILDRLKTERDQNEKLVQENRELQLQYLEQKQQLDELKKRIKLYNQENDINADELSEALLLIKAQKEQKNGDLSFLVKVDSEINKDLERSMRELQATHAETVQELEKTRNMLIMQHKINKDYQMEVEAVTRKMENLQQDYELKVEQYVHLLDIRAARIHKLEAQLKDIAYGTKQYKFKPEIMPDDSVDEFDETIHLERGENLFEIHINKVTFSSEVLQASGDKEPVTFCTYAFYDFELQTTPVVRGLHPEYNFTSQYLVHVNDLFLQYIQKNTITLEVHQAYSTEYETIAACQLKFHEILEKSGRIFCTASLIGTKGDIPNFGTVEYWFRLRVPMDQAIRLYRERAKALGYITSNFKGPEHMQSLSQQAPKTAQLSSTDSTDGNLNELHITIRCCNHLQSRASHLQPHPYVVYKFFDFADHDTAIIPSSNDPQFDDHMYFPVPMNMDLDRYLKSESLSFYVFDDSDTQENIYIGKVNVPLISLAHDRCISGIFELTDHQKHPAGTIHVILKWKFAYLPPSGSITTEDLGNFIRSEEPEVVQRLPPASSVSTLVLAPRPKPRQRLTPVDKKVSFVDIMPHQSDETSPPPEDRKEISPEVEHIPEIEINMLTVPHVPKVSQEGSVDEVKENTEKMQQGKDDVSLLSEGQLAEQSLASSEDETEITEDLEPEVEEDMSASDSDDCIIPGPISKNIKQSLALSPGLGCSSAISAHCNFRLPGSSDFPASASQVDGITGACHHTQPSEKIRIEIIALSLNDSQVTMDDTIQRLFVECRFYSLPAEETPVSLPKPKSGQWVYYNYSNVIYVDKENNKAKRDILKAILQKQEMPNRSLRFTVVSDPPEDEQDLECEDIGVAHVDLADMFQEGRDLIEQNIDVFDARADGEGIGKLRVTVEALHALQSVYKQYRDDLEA

Experiments:
Assay in all cases: two-hybrid; directed yeast two-hybrid by mating: AH109 with pGBKT7 (BD, bait) fusions x Y187 with pACT2 (AD, prey) fusions; growth on -leu,-trp,-his plates scored as strong, medium or weak; each mating repeated at least three times
NPHP2 (inversin) = target: T1, NPHP2 (inversin) (UniProt Q9Y283)
T1 sequence: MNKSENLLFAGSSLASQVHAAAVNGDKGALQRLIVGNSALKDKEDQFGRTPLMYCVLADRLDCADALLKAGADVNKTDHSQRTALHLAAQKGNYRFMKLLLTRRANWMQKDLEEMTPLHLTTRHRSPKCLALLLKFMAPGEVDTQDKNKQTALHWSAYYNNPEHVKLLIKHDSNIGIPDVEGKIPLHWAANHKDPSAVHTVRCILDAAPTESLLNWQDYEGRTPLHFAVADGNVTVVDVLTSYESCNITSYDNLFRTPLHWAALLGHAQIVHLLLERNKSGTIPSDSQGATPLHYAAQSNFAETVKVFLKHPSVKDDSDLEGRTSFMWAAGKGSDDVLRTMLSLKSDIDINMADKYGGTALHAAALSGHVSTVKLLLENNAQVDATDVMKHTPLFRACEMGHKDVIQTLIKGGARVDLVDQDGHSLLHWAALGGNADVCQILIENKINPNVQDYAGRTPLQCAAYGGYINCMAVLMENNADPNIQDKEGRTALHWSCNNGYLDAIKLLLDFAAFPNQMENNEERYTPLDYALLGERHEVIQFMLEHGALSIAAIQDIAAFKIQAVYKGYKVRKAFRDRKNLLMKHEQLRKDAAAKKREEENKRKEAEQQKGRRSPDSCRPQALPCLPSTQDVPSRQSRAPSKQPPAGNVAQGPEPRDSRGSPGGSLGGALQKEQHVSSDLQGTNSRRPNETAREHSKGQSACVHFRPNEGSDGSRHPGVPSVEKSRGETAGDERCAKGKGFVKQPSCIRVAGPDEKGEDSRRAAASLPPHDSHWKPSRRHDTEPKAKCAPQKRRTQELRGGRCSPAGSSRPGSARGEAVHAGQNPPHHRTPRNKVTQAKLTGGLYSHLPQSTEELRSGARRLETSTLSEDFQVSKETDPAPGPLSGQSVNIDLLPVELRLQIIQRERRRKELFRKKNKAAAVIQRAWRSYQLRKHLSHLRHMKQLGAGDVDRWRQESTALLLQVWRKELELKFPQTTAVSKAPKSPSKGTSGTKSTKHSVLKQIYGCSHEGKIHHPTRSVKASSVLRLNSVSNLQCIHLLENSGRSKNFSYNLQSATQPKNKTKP

NPHP3 (human) = NPHP3 (human) (UniProt Q7Z494)
NPHP8 (RPGRIP1L) (human) = NPHP8 (RPGRIP1L) (human) (UniProt Q68CZ1)

Binder | binding (NPHP2 (inversin)) | binding (NPHP3 (human)) | binding (NPHP8 (RPGRIP1L) (human))
B1 | binds | binds weakly | binds
B2 |  |  | binds
B3 | binds |  | binds
B4 | binds |  | 

From paper PMC6760808
